# Test results as given in the supplement of paper PMC3334620.
# Over roughly 33,000 sequences, “E-score (-0.5 to 0.5)” has its median near -0.021; the highest 2% begin near 0.32. The list shows a part of the results.
# Target: T1, Zap1 (UniProt P47043)
# T1 sequence: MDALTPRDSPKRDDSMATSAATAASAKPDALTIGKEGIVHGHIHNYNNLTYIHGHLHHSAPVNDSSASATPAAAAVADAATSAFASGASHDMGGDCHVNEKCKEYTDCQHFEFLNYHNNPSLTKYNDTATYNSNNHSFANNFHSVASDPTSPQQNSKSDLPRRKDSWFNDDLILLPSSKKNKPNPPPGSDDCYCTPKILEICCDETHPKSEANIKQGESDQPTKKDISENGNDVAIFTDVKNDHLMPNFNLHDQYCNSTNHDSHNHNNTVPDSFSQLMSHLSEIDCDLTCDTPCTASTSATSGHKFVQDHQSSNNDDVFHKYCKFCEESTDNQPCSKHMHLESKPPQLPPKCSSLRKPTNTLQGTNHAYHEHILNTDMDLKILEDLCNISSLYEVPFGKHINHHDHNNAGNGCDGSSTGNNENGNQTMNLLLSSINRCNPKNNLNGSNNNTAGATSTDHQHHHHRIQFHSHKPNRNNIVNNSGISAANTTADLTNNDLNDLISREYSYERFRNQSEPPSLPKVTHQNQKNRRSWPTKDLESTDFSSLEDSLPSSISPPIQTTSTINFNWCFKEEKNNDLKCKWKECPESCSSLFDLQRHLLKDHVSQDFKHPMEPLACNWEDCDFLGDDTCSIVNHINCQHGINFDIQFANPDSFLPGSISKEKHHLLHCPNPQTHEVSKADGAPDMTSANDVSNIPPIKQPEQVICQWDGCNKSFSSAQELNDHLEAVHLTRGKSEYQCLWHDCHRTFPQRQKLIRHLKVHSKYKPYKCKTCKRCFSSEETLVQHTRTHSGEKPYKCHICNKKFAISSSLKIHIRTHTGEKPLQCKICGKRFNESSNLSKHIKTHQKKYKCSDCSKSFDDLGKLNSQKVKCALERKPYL
# Assay: PBM E-score (8-mer binding enrichment) (E-score (-0.5 to 0.5)); higher = stronger / more preferred TF binding; most listed sequences are background and not binding sites
# Settings: protein concentration: 200 nM; construct: GST-full length
# Outline: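 PURExpress in vitro transcription/translation supplied GST-tagged yeast transcription factors, either full-length or DNA-binding domain. Applied at about 100-200 nM to universal all-10-mer Agilent arrays double-stranded by primer extension, the bound protein was detected with fluorescent anti-GST. E-scores, modified Wilcoxon-Mann-Whitney statistics, were given by the Universal PBM Analysis Suite to ungapped eight-base words pooled with their reverse complements after masliner normalisation.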
row,Sequence,PBM E-score
1,CCTCCTCA,-0.167
2,AGACACGC,-0.222
3,AATGGTAT,0.23
4,GAGACGCC,-0.0996
5,GTAACTCA,0.126
6,CAAACGGA,-0.11
7,ACACTGCG,-0.0245
8,CTACCTCC,0.0798
9,AAGGAGGG,-0.0526
10,AAAGTGCA,0.0507
11,ACTGCCCT,-0.125
12,ACCCATAC,0.285
13,AAAAAGGC,0.012
14,GCCGGAAA,0.0572
15,TAGTCACA,-0.0749
16,CCCGTATC,0.0321
17,CTAAGGAG,-0.221
18,GAGCCTCA,-0.301
19,GGTTGCAC,0.181
20,AGCCACTG,-0.0116
21,CATCCTAC,-0.142
22,GAATCTAA,-0.00709

row,Sequence,PBM E-score
1,GATAGGGC,-0.213
2,GCGATTTA,-0.132
3,AGCTGGCC,-0.188
4,AAAGGAAT,-0.0362
5,CCCCCGAA,-0.164
6,GGTGGTTA,0.433
7,CAGTAGAC,-0.126
8,GAATTAAC,0.0995
9,CTGGTTGC,0.181
10,AACACAGA,0.0546
11,CACGGCGC,-0.0917
12,ACGGCTAT,-0.243
13,AAAATTGG,0.04
14,GGGCTCGA,-0.137
15,CCGTTGTC,0.0475
16,CACGCGGC,-0.0534
17,ATGAGCTC,-0.24
18,CAATACTC,0.0447
19,CGATGGGC,-0.107
20,CTAGAAAA,-0.017
21,CTCTGTTC,-0.0878
22,GCTAAAGA,-0.0113

row,Sequence,PBM E-score
1,TATCCAAA,0.229
2,TCTGATAA,-0.0662
3,GGTAAAAA,0.274
4,ACTGTCGC,-0.224
5,AAGGACAC,0.213
6,GGCTTCGA,0.00536
7,CACAAAGA,0.137
8,AGGACCAC,0.0741
9,GATTCCAC,0.0825
10,ACGTAGAT,-0.133
11,ACCTCGTC,0.0929
12,GGCGGGAC,-0.0762
13,CGCGCCAG,-0.0551
14,GTCCTTTA,0.132
15,GTGCCTCA,-0.0906
16,GGTGGAAA,-0.203
17,GGATAATA,-0.0472
18,AAGGTGAC,0.261
19,AAAGATTC,0.189
20,CTAACATA,0.0378
21,GTCGCAAC,0.177
22,GGCACGGA,-0.149

row,Sequence,PBM E-score
1,CCTCTCTA,-0.249
2,CTCTTGTA,0.0887
3,AAAACCAC,0.197
4,GCGCGTGA,-0.00686
5,GGGTACAC,0.141
6,CTCCATAC,0.0236
7,ACACTAGG,-0.0686
8,GACGCTTA,-0.181
9,GAAGCTCC,-0.243
10,CCCAAGCA,0.102
11,CATACAGC,-0.249
12,GCTCCAGC,-0.0997
13,GCCACGGC,0.0167
14,AGTCGTAA,0.176
15,GGGAGCAA,-0.283
16,ACTTACGA,0.136
17,AGGGTGGA,0.163
18,ATAGTATG,0.0547
19,CAGTGTAG,0.00851
20,CACCCGCC,0.114
